Laboratory results as given in paper PMC4336329 (PLoS ONE, 2015).
About 2,200 (0.71%) of roughly 310,000 compounds showed an effect of 50% or more. Effects have a minus sign here. The list shows a part of the results.

Molecular target: human ether-à-go-go-related gene (hERG) potassium channel (human, UniProt Q12809)
Assay: primary screen, population patch clamp on CHO cells stably expressing hERG

human ether-à-go-go-related gene (hERG) potassium channel, sequence (Q12809 whole entry, looked up): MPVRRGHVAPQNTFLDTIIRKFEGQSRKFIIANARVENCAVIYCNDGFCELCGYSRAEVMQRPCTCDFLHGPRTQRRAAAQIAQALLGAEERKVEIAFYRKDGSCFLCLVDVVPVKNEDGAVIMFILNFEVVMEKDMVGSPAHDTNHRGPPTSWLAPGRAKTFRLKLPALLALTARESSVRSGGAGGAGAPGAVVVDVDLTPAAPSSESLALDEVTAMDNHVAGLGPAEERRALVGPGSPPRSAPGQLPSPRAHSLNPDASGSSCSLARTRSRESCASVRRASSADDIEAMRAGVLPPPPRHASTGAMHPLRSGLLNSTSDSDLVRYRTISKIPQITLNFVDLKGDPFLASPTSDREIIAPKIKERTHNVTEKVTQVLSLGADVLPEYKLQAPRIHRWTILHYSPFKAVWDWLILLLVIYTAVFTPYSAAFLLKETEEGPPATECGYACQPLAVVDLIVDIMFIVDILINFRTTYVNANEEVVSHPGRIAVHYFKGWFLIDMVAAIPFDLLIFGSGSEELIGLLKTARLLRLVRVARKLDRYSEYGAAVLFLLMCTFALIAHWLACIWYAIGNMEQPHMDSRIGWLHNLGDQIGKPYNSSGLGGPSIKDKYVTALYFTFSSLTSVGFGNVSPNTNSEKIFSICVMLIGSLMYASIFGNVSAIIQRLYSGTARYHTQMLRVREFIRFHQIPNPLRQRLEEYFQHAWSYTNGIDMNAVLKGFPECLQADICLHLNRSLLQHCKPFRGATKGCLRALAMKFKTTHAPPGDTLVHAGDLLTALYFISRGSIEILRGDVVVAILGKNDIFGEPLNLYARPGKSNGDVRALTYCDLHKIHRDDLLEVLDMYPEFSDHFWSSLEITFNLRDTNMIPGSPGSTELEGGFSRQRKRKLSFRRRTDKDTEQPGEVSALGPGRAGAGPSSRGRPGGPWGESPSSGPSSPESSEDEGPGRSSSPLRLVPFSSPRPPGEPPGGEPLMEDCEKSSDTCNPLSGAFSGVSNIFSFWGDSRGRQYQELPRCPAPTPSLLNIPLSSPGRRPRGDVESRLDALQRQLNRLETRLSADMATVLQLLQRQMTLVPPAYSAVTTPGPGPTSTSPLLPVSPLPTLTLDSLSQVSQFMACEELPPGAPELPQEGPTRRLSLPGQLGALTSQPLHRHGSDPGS

Structure (SMILES) | hERG current change (%, negative = inhibition) at 1uM [%]
S=c1[nH]nc(C2CCCCC2)o1 | 4.92
CN(Cc1cccc(F)c1)C(=O)c1ccc2c(=O)n3c(nc2c1)CCC3 | 12.5
CCc1ccc(C(C)NC(=S)NC2CCCCC2)cc1 (centres unmarked) | 16.7
O=C(NCC(c1ccco1)N1CCOCC1)c1c(F)cccc1F (centres unmarked) | -0.879
Cc1cc(C(=O)Nc2ccccc2)c(C)o1 | 11.8
Cc1ccc(Cn2ncc(Cl)c(Cl)c2=O)cc1 | 15.1
NC(=O)c1nsc(C(=O)N(c2cccc(F)c2)C(C(=O)NC2CCCC2)c2ccco2)c1N (centres unmarked) | 14.1
CCOC(=O)c1sc2nc3n(c(=O)c2c1C)CCC(C)CC3 (centres unmarked) | 0.194
Cc1ccc(N2CC(C(=O)Nc3nnc(SCC(=O)NCC4CCCO4)s3)CC2=O)cc1 (centres unmarked) | 24.2
Cc1cc(C(=O)N/N=C/c2cccn2C)no1 | 8.86
CC1CC(C)CN(C(=O)CCc2ccccc2)C1 (centres unmarked) | 11.7
COc1cc(NC(=O)Cc2ccccc2)cc(OC)c1 | 7.71
CCCCn1c(N)c(N(CC)C(=O)c2c(CC)noc2C)c(=O)[nH]c1=O | 15.3
CC(=O)Nc1c(O)[nH]c2ccccc12 | 8.05
COC(=O)CNC(=O)c1cn(-c2ccc(C)c(C)c2)c(=O)c2ccccc12 | 11
COc1ccccc1C1=CC(=O)CC(C)(C)C1=O | 2.92
COC(=O)C(C)N(c1ccc(OC)cc1)S(C)(=O)=O (centres unmarked) | 15.7
Cc1nc(C)c(C(=O)Nc2nc3c(C)cccc3s2)o1 | -4.12
O=C(Nc1c(C(=O)N2CCN(c3ccccn3)CC2)oc2ccccc12)c1cccc([N+](=O)[O-])c1 | 7.86
COc1ccc(S(=O)(=O)N2N=C(c3ccc(NS(C)(=O)=O)cc3)CC2c2ccco2)cc1 (centres unmarked) | -69.6
O=C(Nc1nc(-c2ccc(F)cc2)cs1)c1cnccn1 | -1.92
Cc1ccc(NC(=O)CCn2c(=O)c3cccn3c3ccccc32)cc1C | 19.6
Cc1cc(C(=O)N/N=C/c2c(C)nn(-c3ccccc3)c2Cl)n[nH]1 | 2.71

Structure (SMILES) | hERG current change (%, negative = inhibition) at 1uM [%]
CCN(CC)CCNC(=S)Nc1ccc2nc(N3CCCC3)cc(C)c2c1 | 9.86
c1cn2c(NC3CCCC3)c(-c3ccc(N4CCOCC4)cc3)nc2cn1 | -0.852
CC/C(=N/Nc1ccccc1Cl)c1cnnc(-c2ccccc2)n1 | -19.5
Cc1ccccc1C(=O)NCC(=O)NCC1(N2CCOCC2)CCCCC1 | -3.01
COc1ccc(NS(=O)(=O)c2cccc(C(=O)NCC(c3ccc(OC)cc3)N3CCCC3)c2)cc1 (centres unmarked) | -3.56
Cc1ccc(C(=O)Nc2ccc3c(c2)OCCO3)cc1 | 10.5
Cc1cc2c(ncn2C)c(NS(=O)(=O)c2ccccc2Cl)c1C | -2.76
Cc1ccc(N(C)S(=O)(=O)c2ccc(-c3cnc(C4CC4)o3)cc2)cc1 | 15.1
Cc1nc2ccccc2c2oc(C(=O)NCCN3CCCCC3C)cc12 (centres unmarked) | 11.8
COc1ccc(C(=O)Nc2ccccc2C(=O)N2CCOCC2)cc1Br | -3.34
CC(C)(C)C(=O)NC(=S)N1CCCC1 | 9.63
O=C(c1cc([N+](=O)[O-])ccc1N1CCCCC1)N1CCCC1 | 12.4
O=C(c1ccccc1)N1N=C(C(F)(F)F)CC1(O)c1ccccc1O (centres unmarked) | 13.4
COc1cc2c(cc1OC)C1=C(C#N)COCN1CC2 | 6.47
CS(=O)(=O)N(CC(=O)Nc1ccc(S(=O)(=O)N2CCCC2)cc1)c1ccccc1F | 4.41
NC(=O)C1CCN(C(=O)c2ccc3c(=O)n(Cc4ccco4)c(SCC(=O)c4ccc(F)cc4)nc3c2)CC1 | 7.76
Cc1ccc(C(=O)Nc2ccon2)cc1S(=O)(=O)N1CCCC1 | -2.03
Cl.O=C(c1ccco1)N1CCN(CCCCOc2ccc(F)cc2)CC1 | -74.8
c1ccc2[nH]c(SCc3cn4cccnc4n3)nc2c1 | 4.07
Cn1c(=O)c([N+](=O)[O-])c(NCc2ccccc2Cl)c2ccccc21 | 1.47
CC(C)CN(C(=O)CSc1nnnn1C)C1CCS(=O)(=O)C1 (centres unmarked) | 17.1
CS/C(=N\S(=O)(=O)c1cccs1)NC(=O)CSc1nc2ccccc2s1 | 13.9
O=C(c1cc2ccccc2oc1=O)N(Cc1ccco1)CC1CCCO1 (centres unmarked) | 4.51

Structure (SMILES) | hERG current change (%, negative = inhibition) at 1uM [%]
CCOc1cc(CNc2ccc3c(c2)CCC3)ccc1OC | -1.65
O=C(c1ccc(Cl)c([N+](=O)[O-])c1)N1CCN(Cc2ccc3c(c2)OCO3)CC1 | -9.4
Cc1nc(Cl)c2c(n1)NC(=O)CO2 | 15.4
COc1cccc(NC(=O)Nc2cc(C(=O)NC(C)C)ccc2N2CC3CC(C2)c2cccc(=O)n2C3)c1 (centres unmarked) | 15.3
CC1(c2ccccc2)NC(=O)N(CC(=O)Nc2ccc(C(N)=O)cc2)C1=O (centres unmarked) | 16.2
O=C(NCc1cccc(C(F)(F)F)c1)c1cccc(Cl)c1Cl | -0.138
O=C(NC1CC1)C1CCN(c2ncnc3c2sc2cccc(F)c23)CC1 | -0.298
COc1ccc(NC(=O)CCl)cn1 | 11.1
c1cncc(CSc2ccc(-c3cccs3)nn2)c1 | -4
CCCCN(CC)CCNC(=O)Cn1cnc2sc(C)c(S(=O)(=O)N3CCOCC3)c2c1=O | 9.32
CN(C)S(=O)(=O)c1ccc(C(=O)N(c2ccccn2)c2ccccn2)cc1 | 10.3
Cc1ccccc1NC(=O)C1CCCN1/C=C/C(=O)C(F)(F)F (centres unmarked) | 10.2
N#CC(C#N)=Cc1cccn1-c1ccc(S(N)(=O)=O)cc1 | 13
Cc1cccc(NC2(C(F)(F)F)N=C3SCCN3C2=O)n1 (centres unmarked) | 10.8
O=C(c1ccccc1Cl)N1N=C(c2ccc(Br)cc2)CC1c1nc2ccccc2[nH]1 (centres unmarked) | 0.704
Cc1ccc(-n2c(CSc3nc(C)cc(C)n3)n[nH]c2=S)cc1 | 14.7
CCCCn1c(SCC(=O)Nc2sc3c(c2C(N)=O)CCC3)nnc1-c1ccccc1 | 12.9
CCCc1c(C(=O)Nc2ccc(F)cc2C)cnn1-c1ccccc1 | 7.25
Cc1ccc(C)n1Cc1ccc(C(=O)O)cc1 | 12.1
N#Cc1ccc(C(=O)NC2CCCc3ccccc32)cc1 (centres unmarked) | -23.4
O=C(NN(CC(O)COc1ccccc1)CC(O)COc1ccccc1)c1ccccc1 (centres unmarked) | -19.9
Clc1ccc(-[n+]2c(-c3cccc(Br)c3)[nH]c3nc4ccccc4nc32)cc1 | 12
Cc1cc2c(N=O)c(NO)ccc2[nH]1 | 5.04

Structure (SMILES) | hERG current change (%, negative = inhibition) at 1uM [%]
C#CCOCCOCCOCCNc1nc(N2CCN(C(=O)[C@H](CCCCN)n3cc([C@@H](N)CC(C)C)nn3)CC2)nc(N2CCN(C(=O)[C@H](Cc3cc4ccccc4[nH]3)n3cc([C@@H](N)Cc4ccc(O)cc4)nn3)CC2)n1.Cl | 5.89
CN(C)CCNC(=O)c1scc2c1CCCC2.Cl | 6.51
COc1ccc(C)cc1S(=O)(=O)N1CCC(C)CC1 | -10.9
CCOC(=O)c1c(S(=O)(=O)N2CCCC2)c(C)n(C)c1C | 12.8
O=C(Nc1cccn(Cc2ccccc2Cl)c1=O)NC1CCCCC1 | 5.93
Cc1ccsc1C(=O)N1CCC(N2CCC(C(=O)NCC3CCCO3)CC2)CC1 (centres unmarked) | 9.38
CC(C)c1ccc2nc3sc(C(=O)N4CCc5ccccc5C4)c(N)c3cc2c1 | 9.94
COc1cc2[nH]c(=S)nc(NCc3cccnc3)c2cc1OC | 13.2
CC(NC(=S)Nc1ccc([N+](=O)[O-])cc1)c1ccncc1 (centres unmarked) | 11.1
COC(=O)c1ccc(NC(=O)c2cccc(NC(=O)c3ccccc3)c2)cc1 | 17.5
Cc1ccc(C2CC2C(=O)NNC(=S)Nc2cccc(Cl)c2)cc1 (centres unmarked) | 0.828
COc1cc(/C=C/C(=O)O)cc(S(=O)(=O)N(CC(C)C)CC(C)C)c1OC | 20.5
COc1ccc(Cc2nnc(SCC(=O)c3ccc4c(c3)NC(=O)CO4)o2)cc1 | 13.6
CCN(CC)c1cccc(OC2=NS(=O)(=O)c3ccccc32)c1 | 6.59
O=C(CCl)N=c1sccn1Cc1ccccc1Cl | 12
CC1(C)Cc2ccccc2-c2nc(NCCO)n(-c3ccccc3)c(=O)c21 | -21.6
CCCOc1ccc(OCCOCCNCc2ccccc2)cc1.O=C(O)C(=O)O | -0.713
C[C@]12CCC3C(CCC4=CC(O)CC[C@@]43/C=N/O)C1(O)CCC2C1=CC(=O)OC1 (some centres unmarked) | 8.46
COc1ccc(-c2nc(CS(=O)CC(=O)NCc3ccccn3)c(C)o2)cc1 (centres unmarked) | 9.54
Cc1ccc(C(=O)NNC(=O)CSc2nnc(-c3ccncc3)n2-c2ccc(C)cc2)cc1 | -32.3
